Measured values from PubChem BioAssay AID624417 (National Center for Advancing Translational Sciences (NCATS), 2012).
Out of some 410,000 compounds screened, about 6,400 (1.6%) were called active. Inconclusive means that the source gave no clear call. Such entries were picked first, then a sample of the others. The call rests on the fitted dose curve; in most records, active means well fitted inhibition curve with a large enough effect; inconclusive means small, poorly fitted or top-dose-only effect; inactive means no such curve, though single readings can be large or run the other way. Potencies of inconclusive entries are doubtful fits and often do not repeat.

target: Glucagon-like peptide 1 receptor (Homo sapiens) (UniProt P43220); test: qHTS of GLP-1 Receptor Inverse Agonists (Inhibition Mode); conditions: HEK293 GLP-1R CRE-luciferase, luminescence, 24 h, GLP-1R form is constitutively active; activity change, negative = inhibition: at 38.3 µM (top of the series) unless noted; further: nearly all actives have a fitted effect of over 55% in size
Sequence of UniProt P43220 (P43220 whole entry, looked up): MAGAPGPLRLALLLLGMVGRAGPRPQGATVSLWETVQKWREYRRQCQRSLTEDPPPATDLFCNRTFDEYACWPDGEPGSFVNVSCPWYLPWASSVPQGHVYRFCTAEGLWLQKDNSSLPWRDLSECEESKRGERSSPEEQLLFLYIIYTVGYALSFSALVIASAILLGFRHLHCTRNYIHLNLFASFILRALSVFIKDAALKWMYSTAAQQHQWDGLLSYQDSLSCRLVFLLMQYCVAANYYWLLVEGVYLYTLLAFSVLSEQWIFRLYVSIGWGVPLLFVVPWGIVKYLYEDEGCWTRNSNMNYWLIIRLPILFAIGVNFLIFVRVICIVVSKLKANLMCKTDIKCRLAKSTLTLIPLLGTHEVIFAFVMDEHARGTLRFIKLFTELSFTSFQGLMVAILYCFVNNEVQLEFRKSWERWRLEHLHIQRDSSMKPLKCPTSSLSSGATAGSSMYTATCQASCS
In short: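 Constitutively active GLP-1R drives a cAMP-responsive luciferase in stably transfected HEK293 cells; test compounds are added after overnight (12 h) attachment and left 24 hr, and signal loss in luminescence marks inhibition.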
On the % scale 0 is the no-effect control and ±100 the full control effect; potency means the concentration at half of the fitted maximal effect; tags describe the fitted curve by direction and shape.

Potency, inconclusive:
CCOc1ccc(N(C(=O)CC(C)C)S(=O)(=O)c2ccc3c(c2)oc(=O)n3C)cc1 1 µM [inhibitor, full curve, poor fit], Cc1ccc(C)c(S(=O)(=O)N2CCN(Cc3ccc(O)c4ncccc34)CC2)c1 6.31 µM [inhibitor, partial curve, poor fit], OC(CNCc1ccco1)Cn1c2ccc(Br)cc2c2cc(Br)ccc21 (stereo unspecified) 11.2 µM [inhibitor, single point], COc1ccc(Br)cc1CNC(=O)C1CCN(S(=O)(=O)N2CCCC2)CC1 10 µM [inhibitor, partial curve], CCS(=O)(=O)N1CCc2cc(C(=O)Nc3ccc(OC)c(Cl)c3)ccc21 11.2 µM [inhibitor, partial curve, poor fit], CC1CCc2sc3ncnc(N4CCN(C)CC4)c3c2C1 (stereo unspecified) 14.1 µM [inhibitor, single point], CC(C)N(Cc1ccccc1)C(=O)COC(=O)c1cc(S(=O)(=O)N(C)C)ccc1N1CCCC1 28.2 µM [inhibitor, single point], O=C(CN1CCCCC1)n1c2ccccc2c2ccccc21 11.2 µM [inhibitor, partial curve, poor fit], CN(C)C(=O)c1nc2ccc(Cl)cn2c1CNCc1ccccc1OC(F)(F)F 28.2 µM [inhibitor, single point], CCN1CC(CN(C)Cc2cn(-c3ccc(C)cc3)nc2-c2cccc(C)c2)CC1=O (stereo unspecified) 28.2 µM [inhibitor, single point], COc1ccc(N2CC(C)Cn3c2nc2c3c(=O)n(Cc3ccccc3)c(=O)n2C)c(OC)c1 (stereo unspecified) 10 µM [inhibitor, single point], Cc1cc(C)cc(-n2ccnc2SCC(=O)Nc2nnc(C)s2)c1 3.55 µM [inhibitor, full curve], Cc1ccc(C2NC(c3ccc(C)cc3)C(C)C(=NO)C2C)cc1 (stereo unspecified) 10 µM [inhibitor, partial curve, poor fit], CCCCN(CCCC)S(=O)(=O)c1ccc(NC(=O)c2cccs2)cc1 2.51 µM [inhibitor, partial curve, poor fit], C=CCc1cccc(/C=N/NC(=O)CCC(=O)Nc2ccc(C)cc2)c1O 5.01 µM [inhibitor, full curve], CCC1(C)Cc2ccccc2-c2nc3n(c(=O)c21)CCS3 (stereo unspecified) 2.24 µM [inhibitor, full curve, poor fit], Cc1ccc(C)c(Sc2ccc(NC(=O)CCN3C(=O)NC4(CCCC4)C3=O)cc2)c1 10 µM [inhibitor, partial curve, poor fit], Cc1c(N=C(N)/N=C(\N)Nc2ccc(Br)cc2)c(=O)n(-c2ccccc2)n1C 28.2 µM [inhibitor, single point], O=S1(=O)CCOC[C@H](c2ccccc2)N1Cc1cccc(Cl)c1 10 µM [inhibitor, single point], COc1ccc(NC(=O)c2cccc(S(=O)(=O)N3CCCCCC3)c2)cc1 3.55 µM [inhibitor, partial curve, poor fit], CCOC(=O)c1c(NC(=O)c2ccc(S(=O)(=O)N3CCC(C)CC3)cc2)sc2c1CCN(C)C2 28.2 µM [inhibitor, single point], CC1(C)C2CCC1(C)C(OC(=O)c1ccccc1C(=O)O)C2 (stereo unspecified) 31.6 µM [inhibitor, single point], CCOC(=O)C1CCN(Cc2cc(Cl)c3ccccc3c2O)CC1 4.47 µM [inhibitor, full curve, poor fit], CC(C)OC(=O)c1cc(-c2ccc(C=O)o2)ccc1Cl 20 µM [inhibitor, single point], CCN(CC(=O)Nc1ccccc1OC)CC(=O)Nc1ccccc1-c1ccccc1 5.62 µM [inhibitor, full curve, poor fit], CCCCOCCCn1c(-c2ccco2)nc2nc3ccccc3nc21 10 µM [inhibitor, single point], CCOc1ccc(OCC)c(NC(=O)CCSCCc2ccccn2)c1 12.6 µM [inhibitor, single point], CCOc1ccc(C2c3[nH]c4ccccc4c3CCN2C(=O)CCc2ccccc2)cc1 (stereo unspecified) 3.98 µM [inhibitor, partial curve, poor fit], CCC(C)NC(=O)c1cn(CC)c2cc(N3CCN(C(=O)c4ccco4)CC3)c(F)cc2c1=O (stereo unspecified) 28.2 µM [inhibitor, single point], CC(C)(C)c1nc2cc(Cl)c([N+](=O)[O-])cc2o1 28.2 µM [inhibitor, single point], O=C(NCCCN1CCOCC1)c1ccc(S(=O)(=O)Nc2ccccc2)cc1 7.94 µM [inhibitor, partial curve, poor fit], Cc1ccc(CNC(=O)c2ccc(N3CCC4(CC3)CC(c3cccc(Br)c3)=NO4)c(N)c2)cc1 1.58 µM [inhibitor, full curve], O=C(Nc1cccc(-c2cnc3ccccc3n2)c1)c1cccc(NC(=O)c2ccco2)c1 28.2 µM [inhibitor, single point], O=C(NCCc1c[nH]c2ccccc12)c1cc2sccc2n1Cc1ccccc1 5.62 µM [inhibitor, full curve, poor fit], COc1cccc(C(=O)C2CCCN(Cc3cccc(-n4cccn4)c3)C2)c1 (stereo unspecified) 8.91 µM [inhibitor, partial curve, poor fit], Cc1cccc(OCCn2c(=O)n(C)c3ccccc32)c1 28.2 µM [inhibitor, single point], CCCCNC(=O)C1C(c2ccccc2)=Nc2ccccc2N1C(=O)c1ccc2c(c1)OCO2 (stereo unspecified) 28.2 µM [inhibitor, single point], O=C(CSC1=Nc2ccccc2C2=NC(CC(=O)NC3CCCCC3)C(=O)N12)Nc1ccc(F)cc1 (stereo unspecified) 28.2 µM [inhibitor, single point], COc1ncccc1C(=O)N1CCCC(N2CCN(c3cccc(Cl)c3)CC2)C1 (stereo unspecified) 31.6 µM [inhibitor, single point], O=C(CN1CCN(S(=O)(=O)c2ccc(Cl)cc2)CC1)Nc1ccc2c(c1)OCCO2 31.6 µM [inhibitor, partial curve, poor fit], CCc1ccc(CNC(=O)CN2C(=O)c3cccnc3Oc3ccc(Cl)cc32)cc1 0.447 µM [inhibitor, full curve, poor fit], CNc1nc(SCc2ccc(C)cc2)nc2c1CCCC2 28.2 µM [inhibitor, single point], O=C(N[C@@H](Cc1ccccc1)C(=O)NC1CC1)c1ccc(Cl)cc1 3.55 µM [inhibitor, full curve], O=C(NCC(F)(F)F)c1cc2c(c(-c3cccc(-c4ccccc4F)c3)n1)[C@@H](CCO)N(C(=O)CC1CC1)C2 31.6 µM [inhibitor, partial curve, poor fit], CCOc1ccc(C(=O)COC(=O)Cc2n[nH]c(=O)c3ccccc23)cc1 11.2 µM [inhibitor, partial curve, poor fit], Cc1cc(Cl)ccc1NC(=S)NC1CCCC1 31.6 µM [inhibitor, partial curve, poor fit], COc1ccc([C@H]2CC(=O)C=C(c3cccc(Br)c3)C2)cc1 31.6 µM [inhibitor, partial curve, poor fit], Cc1ccc(NC(=O)CSc2nnc(CN3CCOCC3)n2-c2ccccc2)cc1 1.78 µM [inhibitor, partial curve, poor fit], Cc1ccccc1N1CCN(c2ccc(NC(=O)C3CCCCC3C(=O)O)cc2)CC1 (stereo unspecified) 10 µM [inhibitor, partial curve]

Activity change, negative = inhibition, inactive:
Cc1ccc(-c2nc3scc(CCNC(=O)Cc4ccc(Cl)cc4)n3n2)cc1 -6.13%, CCc1cc2c(COC(=O)c3cc(S(=O)(=O)N4CCOCC4)ccc3F)cc(=O)oc2cc1O -16.7%, Cc1ccc2[nH]c(CSc3nnc(NC(=O)COc4ccccc4)s3)cc(=O)c2c1 9.92%, NC(=O)c1c(NC(=O)c2nc(SCc3ccccc3F)ncc2Cl)sc2c1CCCC2 7.73%, COc1cc(C)ccc1S(=O)(=O)NC(=O)C1(C)CCN1C(=O)COc1ccc(Cl)cc1 (stereo unspecified) -17.9%, CC(C)NC(=O)C1(C)CCN1C(=O)c1cccn1C (stereo unspecified) 18%, Cn1c(=O)c2c(ncn2CC(=O)OCC(=O)Nc2ccc(F)cc2F)n(C)c1=O 5.98%, COc1ccc(C)cc1NC(=O)c1oc2ccc(S(=O)(=O)N3CCCCC3)cc2c1C 2.54%, CCN(c1cccc(C)c1)S(=O)(=O)c1nnc(NC(=O)C2CCCCC2)s1 4.56%, O=C(CSc1nc2ccccc2nc1Cc1ccc(Cl)cc1)N1CCc2ccccc21 5.92%, COC(=O)c1cc(NS(=O)(=O)c2ccc(OC)c(OC)c2)ccc1Cl 7.72%, COc1cccc(/C=C2\SC(=S)N(CC(=O)N(C)C3CCS(=O)(=O)C3)C2=O)c1 (stereo unspecified) 0.663%
